Measurements: patent US8895568B2, “Compositions comprising substituted pteridines as agrochemicals” (Dow AgroSciences LLC, priority 2009, dated 2014)
At least one read-out could not be matched to a standard name with certainty.

Tests used:
[1] = system: Leptosphaeria nodorum; assay: Glume Blotch of Wheat (LEPTNO), foliar spray, percent disease control; format: in vivo; details: foliar spray
[2] = system: Puccinia recondita tritici; assay: Leaf Rust of Wheat (PUCCRT), foliar spray, percent disease control; format: in vivo; details: foliar spray

CC(C)(C)c1ccnc(Oc2ccc(CCNc3ncnc4nccnc34)cc2)c1 [Compound 207, {2-[4-(4-tert-Butylpyridin-2-yloxy)-phenyl]-ethyl}-pteridin-4-ylamine]
LEPTNO percent control [1]: * (* = 0-49 percent control) | PUCCRT percent control [2]: *** (*** = 80-100 percent control)

COc1ccc(CCNc2nc(C)nc3nc(C)c(C)nc23)cc1 [Compound 208, [2-(4-Methoxyphenyl)-ethyl]-(2,6,7-trimethylpteridin-4-yl)-amine]
LEPTNO percent control [1]: * (* = 0-49 percent control) | PUCCRT percent control [2]: *** (*** = 80-100 percent control)

Cc1nc(NCCc2ccc(O)cc2)c2nc(C)c(C)nc2n1 [Compound 209]
LEPTNO percent control [1]: ** (** = 50-79 percent control) | PUCCRT percent control [2]: ** (** = 50-79 percent control)

COc1ccc(CCNc2ncnc3nccnc23)cc1Br [Compound 210]
LEPTNO percent control [1]: * (* = 0-49 percent control) | PUCCRT percent control [2]: *** (*** = 80-100 percent control)

Oc1ccc(CCNc2ncnc3nccnc23)cc1Br [Compound 211]
LEPTNO percent control [1]: * (* = 0-49 percent control) | PUCCRT percent control [2]: ** (** = 50-79 percent control)

FC(F)(F)c1ccnc(Oc2ccc(CCNc3ncnc4nccnc34)cc2Br)c1 [Compound 212, {2-[3-bromo-4-(4-trifluoromethylpyridin-2-yloxy)-phenyl]-ethyl}-pteridin-4-yl-amine]
LEPTNO percent control [1]: ** (** = 50-79 percent control) | PUCCRT percent control [2]: *** (*** = 80-100 percent control)

COC(=O)c1cc(CCNc2ncnc3nccnc23)ccc1Oc1cc(C(F)(F)F)ccn1 [Compound 213, 5-[2-(Pteridin-4-ylamino)-ethyl]-2-(4-trifluoromethyl-pyridin-2-yloxy)-benzoic acid, methyl ester]
LEPTNO percent control [1]: * (* = 0-49 percent control) | PUCCRT percent control [2]: *** (*** = 80-100 percent control)

Cc1nc(NCCc2ccc(Oc3ncc(C(F)(F)F)cc3F)cc2)c2nc(C)c(C)nc2n1 [Compound 214]
LEPTNO percent control [1]: *** (*** = 80-100 percent control) | PUCCRT percent control [2]: ** (** = 50-79 percent control)

Cc1nc(NCCc2ccc(Oc3cc(C(F)(F)F)ccn3)cc2)c2nc(C)c(C)nc2n1 [Compound 215]
LEPTNO percent control [1]: ** (** = 50-79 percent control) | PUCCRT percent control [2]: *** (*** = 80-100 percent control)

Fc1cccc(Oc2ccc(CCNc3ncnc4nccnc34)cc2)c1C(F)(F)F [Compound 216]
LEPTNO percent control [1]: *** (*** = 80-100 percent control) | PUCCRT percent control [2]: *** (*** = 80-100 percent control)

CC1=CSc2cc(CCNc3ncnc4nccnc34)ccc2O1 [Compound 231]
LEPTNO percent control [1]: *** (*** = 80-100 percent control) | PUCCRT percent control [2]: *** (*** = 80-100 percent control)

FC(F)(F)COc1ccc(CCNc2ncnc3nccnc23)cn1 [Compound 232]
LEPTNO percent control [1]: * (* = 0-49 percent control) | PUCCRT percent control [2]: *** (*** = 80-100 percent control)
